{
  "source": "PubChem BioAssay (NCI)",
  "note": "Several values for one entry are separate records, joined by “and”; a condition that tells them apart may be missing. Equal values may be shown once.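 Values below derive from 48-hour exposures of cells grown in 96-well plates, with endpoints linearly interpolated between the two concentrations bracketing the appropriate inhibition level. GI50 = concentration required for 50% inhibition of growth. TGI denotes the concentration required for complete inhibition of growth.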 Peptide text beside a SMILES is read from it. * marks the point of attachment. Boc = CC(C)(C)OC(=O)*",
  "data": [
    {"tested_on": "NCI-H322M lung", "assay": "NCI anticancer screen, dose series, 48 h", "values": [
      {"smiles": "COc1ccc(-c2[nH]c(-c3ccc(OC)cc3)c(-c3ccccn3)c2-c2ccccn2)cc1", "TGI": "> 100 µM"},
      {"smiles": "CCC(=O)N(c1ccccc1)C(C)CN1CCC(O)(c2cccc(C(F)(F)F)c2)CC1", "note": "(stereo unspecified)", "TGI": "47.2 µM"},
      {"smiles": "CC(=O)Nc1c2sscc-2n(C)c1=O", "TGI": "2.92 µM"},
      {"smiles": "CCC1=C[C@@H]2CN(C1)Cc1c([nH]c3ccccc13)[C@@](C(=O)OC)(c1cc3c(cc1OC)N(C)[C@H]1[C@@](O)(C(=O)OC)[C@H](OC(C)=O)[C@]4(CC)C=CCN5CC[C@]31[C@@H]54)C2", "GI50": "< 0.01 µM", "TGI": "20.7 µM"},
      {"smiles": "O=C(CCC(=O)Nc1ccc(Cl)cc1)CC(=O)c1ccc2ccccc2c1", "TGI": "> 100 µM"},
      {"smiles": "Clc1cc2nc(C3CCCCO3)[nH]c2cc1Cl", "note": "(stereo unspecified)", "TGI": "99.5 µM"},
      {"smiles": "COC(=O)CC1C2(C)C3=C(C)C(c4ccoc4)CC3OC2C2OC(=O)C3(C)C=CC(=O)C1(C)C23", "note": "(stereo unspecified)", "TGI": "4.95 µM"},
      {"smiles": "Cc1cc(N(CCC#N)CCC#N)ccc1/C=C1N=C(/C=C/c2ccccc2)N(c2ccc(S(N)(=O)=O)cc2)C\\1=O", "TGI": "> 100 µM"},
      {"smiles": "C=C1C[C@@H](O)[C@@H](Br)C(C)(C)[C@]12CCC(C)(Br)C(Cl)C2", "note": "(stereo partly specified)", "GI50": "19.1 µM", "TGI": "> 50 µM and 40.4 µM"},
      {"smiles": "O=S(=O)(O)c1ccc(Nc2ccnc3ccccc23)cc1", "TGI": "> 100 µM"},
      {"smiles": "O=C1NC(=S)N/C1=C\\c1ccc(Cl)cc1", "TGI": "> 100 µM"},
      {"smiles": "CN1C(=S)CSc2ccccc21", "TGI": "> 100 µM"},
      {"smiles": "Cc1ccc(C(=O)O)c(/C=C2\\Cc3cc(C)cc(C)c3C2=O)c1", "TGI": "> 100 µM"},
      {"smiles": "O=C(NC(=O)c1ccccc1)OC(c1ccccc1)C1CO1", "note": "(stereo unspecified)", "TGI": "> 100 µM"},
      {"smiles": "CCC(C)C(=O)O[C@H]1C(=O)O[C@@H]2C[C@H]3C(C)=CC(=O)[C@@H](O)[C@]3(C)[C@H]3[C@@H](O)[C@H](O)[C@@]4(C)OC[C@]32[C@@H]14", "note": "(stereo partly specified)", "TGI": "0.5 µM"},
      {"smiles": "CCOC(=O)NC(Nc1ccc(S(=O)(=O)Nc2ccc(OC)nn2)cc1)(C(F)(F)F)C(F)(F)F", "TGI": "> 100 µM"},
      {"smiles": "CC(O)CC(=O)CO[C@H]1[C@H](O)[C@@H](O)[C@@H](O)[C@@H]2NC(=O)c3c(cc4c(c3O)OCO4)[C@H]21", "note": "(stereo partly specified)", "TGI": "0.364 µM"},
      {"smiles": "CC[C@@]1(O)C(=O)OCc2c1cc1n(c2=O)Cc2cc3c(CN(C)C)c(O)ccc3nc2-1", "GI50": "0.142 µM and 0.319 µM and 0.436 µM"},
      {"smiles": "OCC1C2CCC3(OCCO3)C12", "note": "(stereo unspecified)", "TGI": "> 100 µM"},
      {"smiles": "CCOC(=O)c1cc(C2=CCNC2=O)c(-c2cc(C)no2)[nH]1", "TGI": "> 100 µM"},
      {"smiles": "O=C1CNc2cc(N3CCOCC3)ccc2N1", "TGI": "> 100 µM"},
      {"smiles": "O=C(/C=C\\c1cc(Br)ccc1O)/C=C/c1cc(Br)ccc1O", "GI50": "1.66 µM", "TGI": "3.38 µM"},
      {"smiles": "Cc1ccccc1C=NC12CC3CC(CC(C3)C1)C2", "TGI": "> 100 µM"},
      {"smiles": "C[C@@H]1CC[C@H]2[C@@H](C)C(OC/C=C/COC3O[C@@H]4O[C@@]5(C)CC[C@H]6[C@H](C)CC[C@@H]([C@H]3C)[C@@]46OO5)O[C@@H]3O[C@@]4(C)CC[C@@H]1[C@]32OO4", "note": "(stereo partly specified)", "GI50": "6.37 µM", "TGI": "> 100 µM"},
      {"smiles": "O=c1c2cccc(F)c2sc2c(NCCCNCCO)nc3ccccc3c12", "GI50": "1.59 µM", "TGI": "3.01 µM"},
      {"smiles": "CC(NC(=O)C(N)CC(=O)O)C(=O)OC12CC3CC(CC(C3)C1)C2", "note": "(stereo unspecified)", "TGI": "> 100 µM"},
      {"smiles": "Clc1ccc(OCc2nnc3sc(SSc4nn5c(COc6ccc(Cl)cc6)nnc5s4)nn23)cc1", "TGI": "> 100 µM"},
      {"smiles": "CCNC(=O)Oc1ccc(/C(=C(\\C)c2ccc(Cl)cc2)c2ccc(OCCN(CC)CC)cc2)cc1", "GI50": "5.36 µM", "TGI": "18.3 µM"},
      {"smiles": "CN1C(c2ccccc2)CC(C)(O)CC1c1ccccc1", "note": "(stereo unspecified)", "TGI": "> 100 µM"},
      {"smiles": "O=[N+]([O-])c1cnc(N(CCO)CCO)s1", "TGI": "> 100 µM"},
      {"smiles": "CC(NC(=O)C1CCCN1C(=O)CNC(=O)OC(C)(C)C)C(=O)O", "note": "(stereo not drawn) (Boc-Gly-Pro-Ala-OH; configuration not given here)", "TGI": "> 100 µM"},
      {"smiles": "Cc1cc(Cl)ccc1NC(=O)CC1SC(=NC(=O)c2ccccc2Cl)NC1=O", "note": "(stereo unspecified)", "TGI": "> 100 µM"},
      {"smiles": "Cc1ccc(/C=C(/C#N)n2nnc3ncccc32)cc1", "GI50": "2.61 µM", "TGI": "11.9 µM"},
      {"smiles": "OCC(O)C(O)C(O)C(O)CNCCO/N=C1/C(c2c(O)[nH]c3ccccc23)=Nc2ccccc21", "note": "(stereo unspecified)", "TGI": "> 50 µM"},
      {"smiles": "O=C1CC(C(=O)O)Cc2c(Br)ccc(O)c21", "note": "(stereo unspecified)", "TGI": "> 100 µM"},
      {"smiles": "CCCCCCCCCCCCNC(=O)N[C@H](C(=O)N[C@H]1/C=C/CCNC(=O)/C=C/[C@H](C)NC1=O)C(C)C", "GI50": "0.517 µM", "TGI": "12.9 µM"},
      {"smiles": "C/C=C(\\C)c1cc(=O)c2c(C)cc3c(c2o1)C(OC)(OC(C)=O)c1c(O)c(C2CC(C)(N(C)C)C(OC(C)=O)C(C)O2)cc(C2CC(N(C)C)C(OC(C)=O)C(C)O2)c1C3=O", "note": "(stereo unspecified)", "TGI": "1.6 µM"},
      {"smiles": "O=C(NNC(=S)Nc1ccc(Cl)cc1)C12CC3CC(CC(C3)C1)C2", "TGI": "44.1 µM"},
      {"smiles": "O=C(O)CCNc1ncc2c(n1)-c1ccccc1OC2", "TGI": "> 100 µM"},
      {"smiles": "Cc1ccc(NC(=O)CC(=O)N2N=C(N3CCCCC3)CC2c2ccccc2)cc1", "note": "(stereo unspecified)", "TGI": "> 100 µM"},
      {"smiles": "O=S1(=O)OCCOS(=O)(=O)C1(Cl)Cl", "TGI": "> 100 µM"},
      {"smiles": "COc1ccc(NC(=S)C#N)cc1", "TGI": "> 100 µM"},
      {"smiles": "COC(=O)C(=O)C(C#N)c1cccc(Cl)c1", "note": "(stereo unspecified)", "TGI": "> 100 µM"},
      {"smiles": "COc1ccc(C(OC(=O)[C@H](O[Si](C)(C)C(C)(C)C)[C@@H](NC(=O)c2ccccc2)c2ccccc2)c2ccc(OC)cc2)cc1", "TGI": "> 100 µM"},
      {"smiles": "CC(=O)N(C)c1cc(NCc2ccccc2)ccc1OCc1ccccc1", "TGI": "43.3 µM"},
      {"smiles": "O=C(c1cc(Cl)cc(Cl)c1)N(Cc1cccnc1)C(=S)N(Cc1cccnc1)C(=O)c1cc(Cl)cc(Cl)c1", "TGI": "> 100 µM"},
      {"smiles": "COC(=O)[C@H](Cc1ccccc1)NNC(=O)c1csc([C@@H](C[C@H](C(C)C)N(C)C(=O)[C@@H](NC(=O)[C@H]2CCCCN2C)C2CC2)OC(C)=O)n1", "TGI": "25 µM and > 100 µM"},
      {"smiles": "c1ccc(COCC[P+](c2ccccc2)(c2ccccc2)c2ccccc2)cc1", "GI50": "3.56 µM", "TGI": "30.7 µM"},
      {"smiles": "Nc1c(C(=O)c2ccc(C#CCN3CCOCC3)cc2)cnn1-c1ccc(F)cc1", "GI50": "> 25 µM", "TGI": "> 25 µM"},
      {"smiles": "C[C@]12CCCN1CC1=NNC(=O)c3cc(F)cc4[nH]c2c1c34", "GI50": "27.1 µM", "TGI": "> 100 µM"},
      {"smiles": "CC(C)=CC1C(COC(=O)c2ccccc2Cl)C1(C)C", "note": "(stereo unspecified)", "TGI": "> 100 µM"},
      {"smiles": "OC(c1ccccc1)C1CC2C=CC1C2", "note": "(stereo unspecified)", "TGI": "> 100 µM"},
      {"smiles": "CC(=O)NNc1nc(C)c(C(/C=C/c2ccc(Cl)cc2)=N\\N=C(N)N)s1", "TGI": "> 100 µM"},
      {"smiles": "COc1ccc(/C(=C/c2ccc3ccccc3c2)c2nn[nH]n2)cc1OC", "GI50": "6.88 µM", "TGI": "> 100 µM"},
      {"smiles": "C=C[C@H]1CN2CCc3c([nH]c4c([C@@H]5CCCN5C)c(O)ccc34)[C@@H]2C[C@@H]1C[C@H]1c2[nH]c3ccccc3c2CCN1C", "GI50": "1.82 µM", "TGI": "3.24 µM and 2.93 µM"},
      {"smiles": "Fc1ccc(Nc2ncc(-c3cc(F)c(Cl)cc3Cl)s2)cc1Cl", "GI50": "6.48 µM", "TGI": "24 µM"},
      {"smiles": "COc1cc(N2CCN(C(C)C)CC2)ccc1Nc1nc(Nc2ccc(F)cc2C(=O)NCC(O)CO)c2cc[nH]c2n1", "note": "(stereo unspecified)", "GI50": "3.12 µM", "TGI": "> 25 µM"},
      {"smiles": "C=C[C@]1(C)CC(=O)C(C(C)C=O)[C@]12C(=O)Oc1cccc(C)c1C2=O", "note": "(stereo partly specified)", "TGI": "34.7 µM"},
      {"smiles": "CN1CCN(Cc2ccc(NC(=O)c3cncc(C#Cc4c(N)ncc5c(F)cccc45)c3)cc2C(F)(F)F)CC1", "GI50": "0.815 µM", "TGI": "1.61 µM"},
      {"smiles": "C=C1C2C[C@@H]3O[C@H]4C[C@H]5O[C@@]6(C[C@@H]7O[C@]8(C[C@H](C)[C@@H]9O[C@@H]%10CC(C=O)O[C@@H]%10C[C@@H]9O8)C[C@H](C)[C@@H]7O6)C[C@H]5O[C@H]4[C@H](C)[C@H]3OC(=O)C[C@H]3CC[C@@H]4OC5[C@H]6O[C@]7(CC[C@H]8CC(=C)[C@H](CC[C@@H](C[C@H]1C)O2)O8)CC6O[C@@H]5[C@@H](O7)[C@H]4O3", "note": "(stereo partly specified)", "TGI": "< 0.0001 µM"},
      {"smiles": "Cc1cc(I)cc(CNCCN2CCOCC2)c1O", "GI50": "83.3 µM", "TGI": "> 100 µM"},
      {"smiles": "CSC1=C(SC)C(=O)c2cn(C)c(=O)cc2C1=O", "TGI": "32.9 µM"},
      {"smiles": "CC(=O)Nc1ncc2c(n1)-c1ccccc1OC2c1ccccc1", "note": "(stereo unspecified)", "TGI": "> 100 µM"},
      {"smiles": "CC[O-].CC[O-].COc1ccc(C(=O)[CH-]C(C)=O)cc1OC.COc1ccc(C(=O)[CH-]C(C)=O)cc1OC.[Ti+4]", "GI50": "86.9 µM", "TGI": "> 100 µM"},
      {"smiles": "[N-]=[N+]=NCCCn1c2c(c3ccc([N+](=O)[O-])cc3c1=O)C(=O)c1cc(I)ccc1-2", "GI50": "25.3 µM", "TGI": "> 100 µM"},
      {"smiles": "COc1ccc(C2CC(c3ccccc3)=NN2C(=O)c2cc(OC)c(OC)c(OC)c2)cc1O", "note": "(stereo unspecified)", "GI50": "0.932 µM", "TGI": "> 100 µM"},
      {"smiles": "CN(CC(=O)O)CC(=O)O", "TGI": "> 100 µM"},
      {"smiles": "O=C(NCCCl)NCCN1c2nc3ccccc3cc2Sc2cc3ccccc3nc21", "GI50": "10.1 µM", "TGI": "> 49.5 µM"},
      {"smiles": "C1=Nc2ccccc2Cn2nncc21", "TGI": "> 100 µM"},
      {"smiles": "CC(C(=O)NCCNC(=O)CCCC(=O)N(C)O)C(=O)NCCNC(=O)CCCC(=O)N(C)O", "TGI": "> 100 µM"}
    ]}
  ]
}
